Measured values: the supplement of paper PMC8728848
The list shows a part of the results.

Columns and labels:
Test in all cases: glycan array binding signal (z-score within array); higher = stronger binding
Settings in all cases: glycan notation: IUPAC condensed, linker removed
Gal(b1-4)Glc = biological target: Gal(b1-4)Glc
How it was run: (§1)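 Glycan array binding is given as a within-array Z-score, which can be read as non-binding when negative. The arrays, 3228 of them, came from the Consortium for Functional Glycomics database and were retained only where the protein sequence was available. Z-scores were averaged across arrays of the same protein sequence at different concentrations or buffers and across linkers.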

Gal(b1-4)Glc6S = biological target: Gal(b1-4)Glc6S
How it was run: as §1

Gal(b1-4)GlcNAc = biological target: Gal(b1-4)GlcNAc
How it was run: as §1

[1] = biological target: Gal(b1-4)GlcNAc(a1-6)Gal(b1-4)GlcNAc
How it was run: as §1

Gal(b1-4)GlcNAc(b1-2)Man = biological target: Gal(b1-4)GlcNAc(b1-2)Man
How it was run: as §1

[2] = biological target: Gal(b1-4)GlcNAc(b1-2)Man(a1-3)Man(b1-4)GlcNAc(b1-4)GlcNAc
How it was run: as §1

[3] = biological target: Gal(b1-4)GlcNAc(b1-2)Man(a1-3)[Gal(b1-4)GlcNAc(b1-2)Man(a1-6)]Man(b1-4)GlcNAc(b1-4)GlcNAc
How it was run: as §1

[4] = biological target: Gal(b1-4)GlcNAc(b1-2)Man(a1-3)[Gal(b1-4)GlcNAc(b1-2)Man(a1-6)]Man(b1-4)GlcNAc(b1-4)[Fuc(a1-6)]GlcNAc
How it was run: as §1

[5] = biological target: Gal(b1-4)GlcNAc(b1-2)Man(a1-3)[Gal(b1-4)GlcNAc(b1-2)Man(a1-6)][Gal(b1-4)GlcNAc(b1-4)]Man(b1-4)GlcNAc(b1-4)[Fuc(a1-6)]GlcNAc
How it was run: as §1

[6] = biological target: Gal(b1-4)GlcNAc(b1-2)Man(a1-3)[Gal(b1-4)GlcNAc(b1-2)Man(a1-6)][GlcNAc(b1-4)]Man(b1-4)GlcNAc(b1-4)[Fuc(a1-6)]GlcNAc
How it was run: as §1

[7] = biological target: Gal(b1-4)GlcNAc(b1-2)Man(a1-3)[GlcNAc(b1-2)Man(a1-6)]Man(b1-4)GlcNAc(b1-4)GlcNAc
How it was run: as §1

[8] = biological target: Gal(b1-4)GlcNAc(b1-2)Man(a1-3)[GlcNAc(b1-4)][Gal(b1-4)GlcNAc(b1-2)Man(a1-6)]Man(b1-4)GlcNAc(b1-4)GlcNAc
How it was run: as §1

[9] = biological target: Gal(b1-4)GlcNAc(b1-2)Man(a1-3)[Man(a1-6)]Man(b1-4)GlcNAc(b1-4)GlcNAc
How it was run: as §1

[10] = biological target: Gal(b1-4)GlcNAc(b1-2)Man(a1-6)Man(b1-4)GlcNAc(b1-4)GlcNAc
How it was run: as §1

[11] = biological target: Gal(b1-4)GlcNAc(b1-2)Man(a1-6)[GlcNAc(b1-2)Man(a1-3)]Man(b1-4)GlcNAc(b1-4)GlcNAc
How it was run: as §1

[12] = biological target: Gal(b1-4)GlcNAc(b1-2)Man(a1-6)[Man(a1-3)]Man(b1-4)GlcNAc(b1-4)GlcNAc
How it was run: as §1

[13] = biological target: Gal(b1-4)GlcNAc(b1-2)[Gal(b1-4)GlcNAc(b1-4)]Man(a1-3)[Gal(b1-4)GlcNAc(b1-2)Man(a1-6)]Man(b1-4)GlcNAc(b1-4)GlcNAc
How it was run: as §1

[14] = biological target: Gal(b1-4)GlcNAc(b1-2)[Gal(b1-4)GlcNAc(b1-4)]Man(a1-3)[Gal(b1-4)GlcNAc(b1-2)[Gal(b1-4)GlcNAc(b1-6)]Man(a1-6)]Man(b1-4)GlcNAc(b1-4)GlcNAc
How it was run: as §1

[15] = biological target: Gal(b1-4)GlcNAc(b1-2)[Gal(b1-4)GlcNAc(b1-4)]Man(a1-3)[GlcNAc(b1-4)][Gal(b1-4)GlcNAc(b1-2)Man(a1-6)]Man(b1-4)GlcNAc(b1-4)GlcNAc
How it was run: as §1

[16] = biological target: Gal(b1-4)GlcNAc(b1-2)[Gal(b1-4)GlcNAc(b1-4)]Man(a1-3)[GlcNAc(b1-4)][Gal(b1-4)GlcNAc(b1-2)[Gal(b1-4)GlcNAc(b1-6)]Man(a1-6)]Man(b1-4)GlcNAc(b1-4)GlcNAc
How it was run: as §1

[17] = biological target: Gal(b1-4)GlcNAc(b1-2)[Gal(b1-4)GlcNAc(b1-6)]Man(a1-6)[Gal(b1-4)GlcNAc(b1-2)Man(a1-3)]Man(b1-4)GlcNAc(b1-4)GlcNAc
How it was run: as §1

[18] = biological target: Gal(b1-4)GlcNAc(b1-2)[Gal(b1-4)GlcNAc(b1-6)]Man(a1-6)[Gal(b1-4)GlcNAc(b1-2)Man(a1-3)]Man(b1-4)GlcNAc(b1-4)[Fuc(a1-6)]GlcNAc
How it was run: as §1

B1: SBD-G4S3-SBD (protein)
chain: MASIPSSASVQLDSYNYDGSTFSGKIYVKNIAYSKKVTVVYADGSDNWNNNGNIIAASFSGPISGSNYEYWTFSASVKGIKEFYIKYEVSGKTYYDNNNSANYQVSTGGGGSGGGGSGGGGSEFASIPSSASVQLDSYNYDGSTFSGKIYVKNIAYSKKVTVVYADGSDNWNNNGNIIAASFSGPISGSNYEYWTFSASVKGIKEFYIKYEVSGKTYYDNNNSANYQVST
**Q.** For B1, which “glycan array binding signal (z-score)” value (Gal(b1-4)Glc) is on record?
**A.** Its value is -0.301.

**Q.** What about the “glycan array binding signal (z-score)” value (Gal(b1-4)Glc6S) of the same binder?
**A.** The value was 0.178.

**Q.** And the “glycan array binding signal (z-score)” value (Gal(b1-4)GlcNAc)?
**A.** The value was -0.361.

**Q.** What about the “glycan array binding signal (z-score)” value [1] of the same binder?
**A.** Its value is -0.002.

**Q.** And the “glycan array binding signal (z-score)” value (Gal(b1-4)GlcNAc(b1-2)Man)?
**A.** Its value is -0.298.

**Q.** What about the “glycan array binding signal (z-score)” value [2] of the same binder?
**A.** The value was 0.338.

**Q.** And the “glycan array binding signal (z-score)” value [3]?
**A.** Its value is -0.028.

**Q.** And the “glycan array binding signal (z-score)” value [4]?
**A.** Its value is -0.131.

**Q.** And the “glycan array binding signal (z-score)” value [5]?
**A.** The value was 1.85.

**Q.** What about the “glycan array binding signal (z-score)” value [6] of the same binder?
**A.** The value was -0.191.

**Q.** What about the “glycan array binding signal (z-score)” value [7] of the same binder?
**A.** Its value is 0.022.

**Q.** And the “glycan array binding signal (z-score)” value [8]?
**A.** The value was -0.082.

**Q.** What about the “glycan array binding signal (z-score)” value [9] of the same binder?
**A.** The value was -0.387.

**Q.** And the “glycan array binding signal (z-score)” value [10]?
**A.** Its value is -0.339.

**Q.** And the “glycan array binding signal (z-score)” value [11]?
**A.** The value was 0.412.

**Q.** What about the “glycan array binding signal (z-score)” value [12] of the same binder?
**A.** Its value is 1.01.

**Q.** What about the “glycan array binding signal (z-score)” value [13] of the same binder?
**A.** Its value is -0.267.

**Q.** What about the “glycan array binding signal (z-score)” value [14] of the same binder?
**A.** The value was 0.758.

**Q.** What about the “glycan array binding signal (z-score)” value [15] of the same binder?
**A.** Its value is 0.111.

**Q.** What about the “glycan array binding signal (z-score)” value [16] of the same binder?
**A.** The value was 1.8.

**Q.** And the “glycan array binding signal (z-score)” value [17]?
**A.** Its value is 1.55.

**Q.** And the “glycan array binding signal (z-score)” value [18]?
**A.** Its value is 4.53.
